Some of the results follow.

The labels stand for the following.
T1: UNK ZnF1-3 (human, UniProt Q9C0B0 31-174)
T1 sequence: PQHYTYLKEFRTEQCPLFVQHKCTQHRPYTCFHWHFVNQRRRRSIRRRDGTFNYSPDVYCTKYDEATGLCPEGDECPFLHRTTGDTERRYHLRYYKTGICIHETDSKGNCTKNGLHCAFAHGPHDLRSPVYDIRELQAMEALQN

B1: chr12:90018129:90018130:-_ENSG00000070961_ENST00000261173|hu_hu|motif|central (ssRNA)
RNA: GGGAGUUCUACAGUCCGACGAUCCUCAGCAAGCCAUGGUCUUUUCUGAACCCAGAAGGUGUCAAUGACAAAAUAUAAUACGGGAAUGAUAACUGUGAUGGCAGACAUCAACAGACCUGCUUUGCCAAUCUGAACAGCCAGUUUCAACAGAGGAUUGAGCAUCA
B2: chr1:220273833:220273834:+_ENSG00000067704_ENST00000302637|hu_hu|motif|central (ssRNA)
RNA: GGGAGUUCUACAGUCCGACGAUCAUCCCAGCCGGGCACAAAAUGUAUUUUGGAGCCAUUCAUCAUAUGGAAUCGAUUGGCGGUGUCUUUCAAAAUCUUAUUUAAAGCAUGUCCAACAUGAGGGUCACCGUUUGCAUAAGGAGGCAACAGAGGAUUGAGCAUCA
B3: 37179728_37179848_3142_CDS_ENSG00000170471_ENST00000397040|human|control|control (ssRNA)
RNA: GGGAGUUCUACAGUCCGACGAUCAUGCAAAUCUGGAAUGCUGAGAUCUGCUUUCACAAAAGGAAUCUUGUCCACCUCUUCAGGAAAUGGCCGAUGUUUCACAGAAUAUUUAAAUCCAACGUCAUUUUUAGGAACUGGGCGAGGCAACAGAGGAUUGAGCAUCA
B4: chr11:69468634:69468635:+_ENSG00000110092_ENST00000227507|hu_hu|motif|central (ssRNA)
RNA: GGGAGUUCUACAGUCCGACGAUCCAGAACACUAGUACAUAACAGAUUAAACAUACCCAAAACUUGAACAAAUUCCAGAAGCGGUUCCAAUCAUCCCGAAUGAGAGUCCUACAGGUACAACGCCGUGGUGGCACGUAAGACACACAACAGAGGAUUGAGCAUCA
B5: chr17:64801638:64801639:+_ENSG00000154229_ENST00000413366|hu_mus|hu_hu_hu_mus_False|38_58 (ssRNA)
RNA: GGGAGUUCUACAGUCCGACGAUCUAUAUAUAUAUAUACAUAUGUACACAUAUAUAGUAAAACCCUAGUUAAACGUGUAAACUAGCCAUUCAUUUUUGAAAUUUUAUCUACAUUAAAAAAUUAAUAUAUCUGAUAGAGUGCCAGCAACAGAGGAUUGAGCAUCA
B6: chr19:53463844:53463845:-_ENSMUSG00000025024_ENSMUST00000025997|mus_hu|FALSE|FALSE (ssRNA)
RNA: GGGAGUUCUACAGUCCGACGAUCUCAUUUUCUCCAUUUCCAGAUAAUGCAGCUUCAACUUGCUGGAGCUGAGCUUUGUAGCUUGCCAGCUGCUUUGCUAAAUCCUCUGACAUCUCAAAGCCCGCCACAACUCGAUCAUUCGGACAACAGAGGAUUGAGCAUCA
B7: chr2:130329849:130329850:+_ENSMUSG00000027303_ENSMUST00000028769|mus_hu|FALSE|FALSE (ssRNA)
RNA: GGGAGUUCUACAGUCCGACGAUCGUCUGAAGAAUUGACAGUGGUUAAAUAGGUGGGUCCCAGAGUUAUAUUUGGGCUGAAUGUUGGUGCCACAGAAAGAGAAGUUAGUGAAGAAGUUGGAUUUGAAGUUUUGGCCUCUUCUUUCAACAGAGGAUUGAGCAUCA
B8: chr4:98674826:98674827:-_ENSMUSG00000028556_ENSMUST00000030286|mus_hu|FALSE|FALSE (ssRNA)
RNA: GGGAGUUCUACAGUCCGACGAUCGAUUCGCAUGUCCCCAAUUCGGACUGGGAACAGGUGUUCAUCCAGAGCAUUGACCAGAGCAAAAAAUUUGUCAAGAUAAGGAUCUUGUGUAUGGAUAGACGAAACAGCAACAACUUCAACCAACAGAGGAUUGAGCAUCA
B9: chr1:150203005:150203006:-_ENSG00000143401_ENST00000314136|hu_hu|FALSE|FALSE (ssRNA)
RNA: GGGAGUUCUACAGUCCGACGAUCAAGAUUUGGACAUUUCUCUGCCAGGACUUCCAAGCCUCCAGAAAUUAUAUUAUCACUAAGCUCCAAUUUUCGAAGUUUAUUUAAGCUGGGAAGCCGGGCCAGCGAACUUAGUUCCACAUUCAACAGAGGAUUGAGCAUCA
B10: 32463084_32463204_1817_3pUTR_ENSMUSG00000027668_ENSMUST00000091257|mouse|control|control (ssRNA)
RNA: GGGAGUUCUACAGUCCGACGAUCCGAGCAGCACCCUCUGUGCAUUUGUGGAACCCAGGAAUCGAUGUACAAGGGAAGACCAGCCCAGGGAAAACCGAAACACAAUGUCCUCUUGAAAAUCCGAACACAGCUUGUGGCAAUUGACAACAGAGGAUUGAGCAUCA
B11: chrX:98510588:98510589:+_ENSMUSG00000031302_ENSMUST00000065858|mus_mus|FALSE|FALSE (ssRNA)
RNA: GGGAGUUCUACAGUCCGACGAUCAUGAGACAGUGUAAGGAGACUGACACAGGAUGCACCGAUGCCAGAGCCAAAGACAGUAAUUCUACGGGGAUCUCCUCCAAAGAAGGCAAUAUUCUCACUCACCCAGCGAAGGGCCUGGAUCAACAGAGGAUUGAGCAUCA
B12: chr11:77843920:77843921:+_ENSMUSG00000037791_ENSMUST00000049167|mus_mus|FALSE|FALSE (ssRNA)
RNA: GGGAGUUCUACAGUCCGACGAUCGUUUUUAUAUACAGAAUACAGGAAAGUUUCUGUCAAGUCUAAAACAUUACAAUUACUAUGUACAUUGGUUGUGGGGAAGAGGAAGUAUCUGGGGUGAGGAGGAAGAGAAGUGGUAAGAACCAACAGAGGAUUGAGCAUCA
B13: chr1:220276048:220276049:+_ENSG00000067704_ENST00000302637|hu_hu|hu_hu_hu_mus_True|78_78 (ssRNA)
RNA: GGGAGUUCUACAGUCCGACGAUCGCAAAUUGCCUGGUUGGCGGGAAUUGUCCAAGGUUGUGUGGUCCAAACUAAAACGCUAACAGGGGAUGAGGCAUCUGUAAGAGACUCCAACUUCGGAGGAGGUCUCAGGAGGGGGAAUCUCAACAGAGGAUUGAGCAUCA
B14: chr2:198351390:198351391:-_ENSG00000144381_ENST00000345042|hu_hu|hu_hu_hu_mus_False|58_78 (ssRNA)
RNA: GGGAGUUCUACAGUCCGACGAUCUCAUUCCCACCCUCCACAGAAAGGCUGCUUCUGUUCUCAUCUGUGGUGACACAGCACUAAAAUCCUGAUGCUCACAGAACAGUAGAGAUGCCUCAGUGAUUUAAGUUGAAAGCAGGACACCAACAGAGGAUUGAGCAUCA
B15: chr5:132270174:132270175:-_ENSG00000072364_ENST00000265343|hu_mus|motif|central (ssRNA)
RNA: GGGAGUUCUACAGUCCGACGAUCAGAAUCCCAGUUGGCAUCAGGGUCCCGAGGUGAUUUGGAGCGCUGAUGUUCCUUGCGGUGGUGAUCAUUCCCAUGAGACCUGGAAUGACUAGAACUUAAUGAAGAAACAGCCUGGGGUUUCAACAGAGGAUUGAGCAUCA
B16: chr7:118225073:118225074:-_ENSMUSG00000005610_ENSMUST00000162415|mus_mus|FALSE|FALSE (ssRNA)
RNA: GGGAGUUCUACAGUCCGACGAUCGCACUGAAACGAGAAGCACCCCCUUCUGCAAUCGCACUCUCCACUUUGGCGGCUUGACAACGAAGAAUCUUCAAAAGAAUAAUAUUAAUGGAUGGGGUGGGGAGGGGAGGGGAUGGUAGACAACAGAGGAUUGAGCAUCA
B17: chr2:152658766:152658767:-_ENSG00000162980_ENST00000295087|hu_mus|FALSE|FALSE (ssRNA)
RNA: GGGAGUUCUACAGUCCGACGAUCAUUCUUAAAUUCAUUUUAACUGUUUGUCAUGUAAUUUAAUACCUAAAAAGGUUGCAGCUAAAUUAAUUACUACUAUUUAUAGGAUGUUACCUCUUUGGGUAGAUAUAUUUCACACCAUGACAACAGAGGAUUGAGCAUCA
B18: chr9:58050066:58050067:-_ENSMUSG00000051243_ENSMUST00000163897|mus_mus|motif|central (ssRNA)
RNA: GGGAGUUCUACAGUCCGACGAUCGGGACCUGCUGAACUGCGCUGCCUGGCUCUCCCGGACCCUUUUCCUCCUGCCGCCUGCGGGCCUCCCCCUCCCCGAAGCUUCGUUCAACACGAUGCAUAAUUGAUAGUGUUAGCAGAACGCAACAGAGGAUUGAGCAUCA
B19: chr3:148802587:148802588:-_ENSG00000071794_ENST00000310053|hu_mus|hu_hu_hu_mus_False|1_48 (ssRNA)
RNA: GGGAGUUCUACAGUCCGACGAUCUCCAACAACUUGUCCUCUCAUAGUUCCAAAUAAAACCAAAUCUUGCUCUUCAUCACUCGUUAGAAAGUCAUCUGGAGGAAUAAUGUCUUGGAAUUCAAAAUGUGGCAAGAAAGUUGGAUACAACAGAGGAUUGAGCAUCA
B20: chr7:91030085:91030086:-_ENSMUSG00000070462_ENSMUST00000094216|mus_mus|FALSE|FALSE (ssRNA)
RNA: GGGAGUUCUACAGUCCGACGAUCAAUACUCCAGUACAUGCAGGGUAAAAACUUGACAUUGGGGGGGGGGGGAAAUCACUCUAUAGUGUAAUUUAAAAAAUAAAACACACGCUCACAGUAGCUUUCCCCCCCACUUGCAAAUCACAACAGAGGAUUGAGCAUCA
B21: chrX:71549400:71549401:+_ENSMUSG00000019087_ENSMUST00000019231|mus_hu|FALSE|FALSE (ssRNA)
RNA: GGGAGUUCUACAGUCCGACGAUCGCAGUAGGAAGAGGGAAGCUCUUCAGUCCAGUGCGCUGCAGGGUGGGAAAGCAACAACACGGACACCGUCCCACCCUCAACCCCCCCACUGGCACAGGGUCACACAAUCUGGGUCAAAGACAACAGAGGAUUGAGCAUCA
B22: 17197765_17197885_133_5pUTR_ENSMUSG00000017485_ENSMUST00000017629|mouse|control|control (ssRNA)
RNA: GGGAGUUCUACAGUCCGACGAUCAUGAGCCGCUGCUUCUCCUCAAGCCACCGAAGCCGCAGAGUCCUCGCCGCGGUCGCCGCAGCCUCAAAGGCCGCCACUGCCUCAAAACCGCCCAAGCGGCGUCUGAACCGGUCCUCCGGACAACAGAGGAUUGAGCAUCA

The assay addresses T1, UNK ZnF1-3. Put plainly: nsRBNS (natural sequence RNA bind-n-seq); RBNS binding buffer (assumed for nsRBNS): 25 mM Tris pH 7.5, 150 mM KCl, 3 mM MgCl2, 0.01% Triton X-100, 500 ug/ml BSA, 20 U/ml SUPERase-In, 4 C; UNK is unkempt and MSI1 is Musashi-1; names of the RNAs are library labels; protein concentration not given here; high values mean tight binding.
B1 yielded a binding signal of 1.49 enrichment R.
B2 had a binding signal of 1.82 enrichment R.
For the molecule B3, the binding signal came to 0.925 enrichment R.
In turn, B4 had a binding signal of 2.11 enrichment R.
B5 returned a binding signal of 1.17 enrichment R.
As for B6, the binding signal was determined as 0.661 enrichment R.
Molecule B7 had a binding signal of 1.49 enrichment R.
With B8, the binding signal is 1.33 enrichment R.
B9 displayed a binding signal of 0.675 enrichment R.
The same measure for B10: 1.46 enrichment R; for B11: 1.21 enrichment R.
Molecule B12 came in with a binding signal of 1.58 enrichment R.
With B13 the figure was 1.73 enrichment R.
Regarding B14, the binding signal turned out to be 1.22 enrichment R.
In the case of B15, the binding signal was 1.05 enrichment R.
Take B16: the binding signal is 2.8 enrichment R.
B17 gave a binding signal of 0.748 enrichment R.
The molecule B18 returned a binding signal of 1.07 enrichment R.
Molecule B19 displayed a binding signal of 0.931 enrichment R.
With B20 the figure was 0.864 enrichment R; with B21, 1.65 enrichment R.
With B22, the binding signal stood at 1.01 enrichment R.

Values taken from publication PMC12136788.
